For experiment [1], the target named is RRV 26–95 gH-V5/gL-Flag complex (rhesus monkey rhadinovirus (RRV) isolate 26–95).
Experiment [2] has the same target. This is another data set of the same source.

As to “human full-length myc-tagged EphB3 (from UniProt P54753 34-998) (receptor)”, the cell-cell fusion (luciferase) of 293T cells expressing RRV 26–95 gH/gL/gB with hEphB3-Strep overexpressing Raji cells (Fig 6E) in experiment [1] amounted to 129 fold. “myc-tagged full-length human Plxdc1 (from UniProt Q8IUK5-1 19-500) (receptor)”: the cell-cell fusion (luciferase) of 293T cells expressing RRV 26–95 gH/gL/gB with Raji-Gal4-Luc cells expressing Plxdc1-Strep, against control transfected 293T cells (Fig 6E) in experiment [1] amounted to 79 fold. “myc-tagged full-length human Plxdc2 (from UniProt Q6UX71-1 31-529) (receptor)”: in experiment [1], the cell-cell fusion (luciferase) of 293T cells expressing RRV 26–95 gH/gL/gB with Raji-Gal4-Luc cells expressing Plxdc2-Strep, against control transfected 293T cells (Fig 6E) worked out at 45 fold. On to “soluble human Plxdc2, ectodomain (amino acids 31–453) fused to IgG1 Fc with a C-terminal tandem Strep-Tag (from UniProt Q6UX71-1 31-453) (Fc fusion)”, for which the inhibition of RRV-YFP wt infection of HaCaT cells by a concentration series of soluble hPlxdc2-FcStrep (Fig 4B) in experiment [2] came out at 60%.

Source of the values: PMC7959344.
